# Results: the supplement of paper PMC8728848
# Some of the results follow.
# Columns and labels:
# Assay in all cases: glycan array binding signal (z-score within array); higher = stronger binding
# Conditions in all cases: glycan notation: IUPAC condensed, linker removed
# [1] = target: GalNAc(a1-3)GalNAc(b1-3)Gal(a1-4)Gal(b1-4)GlcNAc
# Method in brief: (§1)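 The binding signal is a Z-score computed within each array and averaged over linkers. Arrays of the same protein sequence at different concentrations or buffers were also averaged together. Data originate from 3228 arrays in the Consortium for Functional Glycomics database, kept only where the protein sequence was available.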
# [2] = target: GalNAc(b1-3)Gal
# Method in brief: as §1
# [3] = target: GalNAc(b1-3)Gal(a1-4)Gal(b1-4)GlcNAc
# Method in brief: as §1
# [4] = target: GalNAc(b1-3)Gal(a1-4)Gal(b1-4)GlcNAc(b1-3)Gal(b1-4)Glc
# Method in brief: as §1
# [5] = target: GalNAc(b1-3)Gal(a1-6)Gal(b1-4)Glc
# Method in brief: as §1
# [6] = target: GalNAc(b1-3)GalNAc
# Method in brief: as §1
# [7] = target: GalNAc(b1-4)Gal(b1-4)Glc
# Method in brief: as §1
# [8] = target: GalNAc(b1-4)GlcNAc
# Method in brief: as §1
# [9] = target: GalNAc(b1-4)GlcNAc(b1-2)Man(a1-3)[GalNAc(b1-4)GlcNAc(b1-2)Man(a1-6)]Man(b1-4)GlcNAc(b1-4)GlcNAc
# Method in brief: as §1
# [10] = target: GalNAc(b1-4)GlcNAc6S
# Method in brief: as §1
# [11] = target: GalNAc(b1-6)GalNAc
# Method in brief: as §1
# [12] = target: GalNAc3S(b1-4)GlcNAc
# Method in brief: as §1
# [13] = target: GalNAc3S(b1-4)GlcNAc3S
# Method in brief: as §1
# [14] = target: GalNAc4S6S(b1-4)GlcNAc
# Method in brief: as §1
# [15] = target: GalNAc6S(b1-4)GlcNAc
# Method in brief: as §1
# [16] = target: Glc(a1-4)Glc
# Method in brief: as §1
# [17] = target: Glc(a1-4)Glc(a1-4)Glc(a1-4)Glc
# Method in brief: as §1
# [18] = target: Glc(a1-6)Glc(a1-6)Glc
# Method in brief: as §1
# [19] = target: Glc(a1-6)Glc(a1-6)Glc(a1-6)Glc
# Method in brief: as §1
# [20] = target: Glc(b1-4)Glc
# Method in brief: as §1
# [21] = target: Glc(b1-6)Glc
# Method in brief: as §1
# [22] = target: GlcA(b1-3)Gal
# Method in brief: as §1
# [23] = target: GlcA(b1-3)GlcNAc
# Method in brief: as §1
# [24] = target: GlcA(b1-6)Gal
# Method in brief: as §1
# [25] = target: GlcNAc(a1-3)Gal(b1-4)GlcNAc
# Method in brief: as §1
# [26] = target: GlcNAc(a1-4)Gal(b1-3)GlcNAc
# Method in brief: as §1
# [27] = target: GlcNAc(a1-4)Gal(b1-4)GalNAc
# Method in brief: as §1
# [28] = target: GlcNAc(a1-4)Gal(b1-4)GlcNAc
# Method in brief: as §1
# [29] = target: GlcNAc(a1-4)Gal(b1-4)GlcNAc(b1-3)Gal(b1-4)Glc
# Method in brief: as §1
# [30] = target: GlcNAc(a1-4)Gal(b1-4)GlcNAc(b1-3)Gal(b1-4)GlcNAc
# Method in brief: as §1
# [31] = target: GlcNAc(a1-4)Gal(b1-4)GlcNAc(b1-3)Gal(b1-4)GlcNAc(b1-3)Gal(b1-4)GlcNAc
# Method in brief: as §1
# [32] = target: GlcNAc(a1-4)Gal(b1-4)GlcNAc(b1-3)Gal(b1-4)[Fuc(a1-3)]GlcNAc(b1-3)Gal(b1-4)[Fuc(a1-3)]GlcNAc
# Method in brief: as §1
# [33] = target: GlcNAc(a1-6)Gal(b1-4)GlcNAc
# Method in brief: as §1
# [34] = target: GlcNAc(b1-2)Gal(b1-3)GalNAc
# Method in brief: as §1
# [35] = target: GlcNAc(b1-2)Man(a1-3)[GlcNAc(b1-2)Man(a1-6)]Man(b1-4)GlcNAc(b1-4)GlcNAc
# Method in brief: as §1
# [36] = target: GlcNAc(b1-2)Man(a1-3)[GlcNAc(b1-2)Man(a1-6)]Man(b1-4)GlcNAc(b1-4)[Fuc(a1-6)]GlcNAc
# Method in brief: as §1
# [37] = target: GlcNAc(b1-2)Man(a1-3)[GlcNAc(b1-4)][GlcNAc(b1-2)Man(a1-6)]Man(b1-4)GlcNAc(b1-4)GlcNAc
# Method in brief: as §1
# [38] = target: GlcNAc(b1-2)[GlcNAc(b1-4)]Man(a1-3)[GlcNAc(b1-2)Man(a1-6)]Man(b1-4)GlcNAc(b1-4)GlcNAc
# Method in brief: as §1
# [39] = target: GlcNAc(b1-2)[GlcNAc(b1-4)]Man(a1-3)[GlcNAc(b1-4)][GlcNAc(b1-2)Man(a1-6)]Man(b1-4)GlcNAc(b1-4)GlcNAc
# Method in brief: as §1
# [40] = target: GlcNAc(b1-2)[GlcNAc(b1-4)]Man(a1-3)[GlcNAc(b1-4)][GlcNAc(b1-2)[GlcNAc(b1-6)]Man(a1-6)]Man(b1-4)GlcNAc(b1-4)GlcNAc
# Method in brief: as §1
# [41] = target: GlcNAc(b1-2)[GlcNAc(b1-4)]Man(a1-3)[GlcNAc(b1-4)][GlcNAc(b1-2)[GlcNAc(b1-6)]Man(a1-6)]Man(b1-4)GlcNAc(b1-4)[Fuc(a1-6)]GlcNAc
# Method in brief: as §1
# [42] = target: GlcNAc(b1-2)[GlcNAc(b1-6)]Man(a1-6)[GlcNAc(b1-2)Man(a1-3)]Man(b1-4)GlcNAc(b1-4)GlcNAc
# Method in brief: as §1
# [43] = target: GlcNAc(b1-2)[GlcNAc(b1-6)]Man(a1-6)[GlcNAc(b1-2)Man(a1-3)]Man(b1-4)GlcNAc(b1-4)[Fuc(a1-6)]GlcNAc
# Method in brief: as §1
# [44] = target: GlcNAc(b1-2)[GlcNAc(b1-6)]Man(a1-6)[GlcNAc(b1-2)Man(a1-3)][GlcNAc(b1-4)]Man(b1-4)GlcNAc(b1-4)GlcNAc
# Method in brief: as §1
# [45] = target: GlcNAc(b1-3)Gal
# Method in brief: as §1
binder,measurement,setting,value
"OrfX (Escherichia coli), Q9X4B6_ECOLX (protein) MIKIARIAVTLGLLSSLGAQAYAAGLVVNDNDLRNDLAWLSDRGVIHLSLSTWPLSQEEIARALKKAKPSYSSEQVVLARINQRLSALKADFRVTGYTSTDQPGTPQGFGQTQPADNSLGLAFNNSGEWWDVHLQGNVEGGERISNGSRFNANGAYGAVKFWNQWLSFGQVPQWWGPGYEGSLIRGDAMRPMTGFLMQRAEQAAPETWWLRWVGPWQYQISASQMNQYTAVPHAKIIGGRFTFTPFQSLELGASRIMQWGGEGRPQSFSSFWDGFTGHDNTGTDNEPGNQLAGFDFKFKLEPTLGWPVSFYGQMVGEDESGYLPSANMFLGGVEGHHGWGKDTVNWYVEAHDTRTNMSRTNYSYTHHIYKDGYYQQGYPLGDAMGGDGQLIAGKVELITEDNQRWSTRLVYAKVNPENQSINKAFPHADTLKGLQLGWSGDVYQSVRLNTSLWYTNANNSDSDDVGASAGIEIPFSL",glycan array binding signal (z-score),[1],-0.374
same,glycan array binding signal (z-score),[2],-0.22
same,glycan array binding signal (z-score),[3],-0.088
same,glycan array binding signal (z-score),[4],-0.218
same,glycan array binding signal (z-score),[5],-0.264
same,glycan array binding signal (z-score),[6],-0.076
same,glycan array binding signal (z-score),[7],0.667
same,glycan array binding signal (z-score),[8],-0.182
same,glycan array binding signal (z-score),[9],-0.409
same,glycan array binding signal (z-score),[10],-0.108
same,glycan array binding signal (z-score),[11],-0.231
same,glycan array binding signal (z-score),[12],-0.23
same,glycan array binding signal (z-score),[13],-0.14
same,glycan array binding signal (z-score),[14],-0.183
same,glycan array binding signal (z-score),[15],-0.318
same,glycan array binding signal (z-score),[16],0.014
same,glycan array binding signal (z-score),[17],0.149
same,glycan array binding signal (z-score),[18],-0.074
same,glycan array binding signal (z-score),[19],0.415
same,glycan array binding signal (z-score),[20],-0.058
same,glycan array binding signal (z-score),[21],0.039
same,glycan array binding signal (z-score),[22],0.363
same,glycan array binding signal (z-score),[23],-0.214
same,glycan array binding signal (z-score),[24],-0.297
same,glycan array binding signal (z-score),[25],0.138
same,glycan array binding signal (z-score),[26],-0.225
same,glycan array binding signal (z-score),[27],1.49
same,glycan array binding signal (z-score),[28],-0.104
same,glycan array binding signal (z-score),[29],-0.135
same,glycan array binding signal (z-score),[30],1.76
same,glycan array binding signal (z-score),[31],-0.324
same,glycan array binding signal (z-score),[32],10.6
same,glycan array binding signal (z-score),[33],-0.119
same,glycan array binding signal (z-score),[34],-0.059
same,glycan array binding signal (z-score),[35],-0.178
same,glycan array binding signal (z-score),[36],0.125
same,glycan array binding signal (z-score),[37],-0.23
same,glycan array binding signal (z-score),[38],-0.239
same,glycan array binding signal (z-score),[39],-0.208
same,glycan array binding signal (z-score),[40],-0.335
same,glycan array binding signal (z-score),[41],-0.389
same,glycan array binding signal (z-score),[42],-0.098
same,glycan array binding signal (z-score),[43],-0.322
same,glycan array binding signal (z-score),[44],-0.197
same,glycan array binding signal (z-score),[45],-0.257
